Enrichment score data for 19 molecules are collected here from the supplement of paper PMC10369915.

Some of the results follow. No stated cut-off is given here; in the data, active = 3.2 or more and inactive = the rest. Most of these values are background signal.

Targets include SHP2 C-SH2 domain E139D; SHP2 N-SH2 domain L43F; SHP2 N-SH2 domain T42A; SHP2 N-SH2 domain T52S.
Assay in all cases: enrichment score (SH2-bound / input frequency) (ratio); bacterial display of known human phosphotyrosine sites (pTyr-Var adds point mutants) read by sequencing; higher = stronger binding; tyrosines were phosphorylated by kinases first
Holding throughout (settings): peptide library: pTyr-Var

In assay [1] the target is SHP2 C-SH2 domain wild-type.
The target in assay [2] is SHP2 N-SH2 domain wild-type.
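Further: displayed peptides selected on beads carrying the immobilized SH2 domain, with library peptides lacking any tyrosine serving as negative controls.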

B1: CHN1_Y148 (peptide)
chain: YEHVGYTTLNR
On to B1, for which the enrichment score is inactive: 1.13 with SHP2 C-SH2 domain E139D; inactive: 3.16 in assay [1]; inactive: 0.77 with SHP2 N-SH2 domain L43F; inactive: 2.33 in the assay with SHP2 N-SH2 domain T42A; inactive: 0.707 with SHP2 N-SH2 domain T52S; inactive: 0.647 in assay [2].

B2: CHST4_Y359 (peptide)
chain: MNLLGYRHVRS
On to B2, for which the enrichment score is inactive: 0.479 with SHP2 C-SH2 domain E139D; inactive: 0.457 in assay [1]; inactive: 0.467 with SHP2 N-SH2 domain L43F; inactive: 0.493 with SHP2 N-SH2 domain T42A; inactive: 0.494 with SHP2 N-SH2 domain T52S; inactive: 0.508 in assay [2].

B3: CFTR_Y517_D513G_YF (peptide)
chain: FGEFRYRSVIK
With B3, the enrichment score with SHP2 C-SH2 domain E139D was inactive: 0.492; in assay [1], inactive: 0.479; with SHP2 N-SH2 domain L43F, inactive: 0.538; with SHP2 N-SH2 domain T42A, inactive: 0.508; with SHP2 N-SH2 domain T52S, inactive: 0.607; in assay [2], inactive: 0.691.

B4: CHGA_Y381 (peptide)
chain: FRARAYGFRGP
With B4, the enrichment score is inactive: 0.255 with SHP2 C-SH2 domain E139D; inactive: 0.317 in assay [1]; inactive: 0.431 with SHP2 N-SH2 domain L43F; inactive: 0.295 with SHP2 N-SH2 domain T42A; inactive: 0.317 in the assay with SHP2 N-SH2 domain T52S; inactive: 0.202 in assay [2].

B5: CFTR_Y515_V520F_YF (peptide)
chain: VSFDEYRFRSF
As to B5, the enrichment score was inactive: 0.786 in the assay with SHP2 C-SH2 domain E139D; inactive: 0.658 in assay [1]; inactive: 0.671 in the assay with SHP2 N-SH2 domain L43F; inactive: 0.607 with SHP2 N-SH2 domain T42A; inactive: 0.686 in the assay with SHP2 N-SH2 domain T52S; inactive: 0.867 in assay [2].

B6: CHP2_Y123_R127P_YF (peptide)
chain: FAFQLYDLDPD
For B6, the enrichment score with SHP2 C-SH2 domain E139D is inactive: 1.86; in assay [1] it was inactive: 1.58; with SHP2 N-SH2 domain L43F it was inactive: 1.6; with SHP2 N-SH2 domain T42A it was inactive: 1.5; with SHP2 N-SH2 domain T52S, inactive: 1.64; in assay [2], inactive: 1.81.

B7: CHP2_Y123_R127P (peptide)
chain: YAFQLYDLDPD
Consider B7, for which the enrichment score was inactive: 1.31 with SHP2 C-SH2 domain E139D; inactive: 2.07 in assay [1]; inactive: 1.37 in the assay with SHP2 N-SH2 domain L43F; inactive: 1.19 in the assay with SHP2 N-SH2 domain T42A; inactive: 1.12 with SHP2 N-SH2 domain T52S; inactive: 0.797 in assay [2].

B8: CHD7_Y1218_Q1214R (peptide)
chain: IRKKYYRAILE
Turning to B8, the enrichment score with SHP2 C-SH2 domain E139D was inactive: 0.276; in assay [1], inactive: 0.36; with SHP2 N-SH2 domain L43F it was inactive: 0.287; with SHP2 N-SH2 domain T42A it was inactive: 0.383; with SHP2 N-SH2 domain T52S, inactive: 0.352; in assay [2], inactive: 0.318.

B9: CHN1_Y148_YF (peptide)
chain: FEHVGYTTLNR
Turning to B9, the enrichment score in the assay with SHP2 C-SH2 domain E139D was inactive: 1.6; in assay [1] it was active: 3.96; in the assay with SHP2 N-SH2 domain L43F it was inactive: 0.916; with SHP2 N-SH2 domain T42A it was active: 3.34; with SHP2 N-SH2 domain T52S, inactive: 0.906; in assay [2], inactive: 0.713.

B10: CHD7_Y75_YF (peptide)
chain: DHFNQYEQQKM
As for B10, the enrichment score is inactive: 0.677 in the assay with SHP2 C-SH2 domain E139D; inactive: 0.508 in assay [1]; inactive: 0.803 with SHP2 N-SH2 domain L43F; inactive: 0.596 with SHP2 N-SH2 domain T42A; inactive: 0.548 with SHP2 N-SH2 domain T52S; inactive: 0.689 in assay [2].

B11: CHN1_Y143_Y143H_YF (peptide)
chain: TINPIHEHVGF
For the molecule B11, the enrichment score with SHP2 C-SH2 domain E139D is inactive: 1.2; in assay [1], inactive: 0.944; with SHP2 N-SH2 domain L43F, inactive: 1.18; with SHP2 N-SH2 domain T42A it was inactive: 1.04; with SHP2 N-SH2 domain T52S, inactive: 0.967; in assay [2], inactive: 1.09.

B12: CHD7_Y1218_Q1214R_YF (peptide)
chain: IRKKFYRAILE
As to B12, the enrichment score in the assay with SHP2 C-SH2 domain E139D is inactive: 0.469; in assay [1] it was inactive: 0.385; in the assay with SHP2 N-SH2 domain L43F it was inactive: 0.257; with SHP2 N-SH2 domain T42A it was inactive: 0.436; with SHP2 N-SH2 domain T52S, inactive: 0.29; in assay [2], inactive: 0.425.

B13: CHEK2_Y390_Y390C (peptide)
chain: CGTPTCLAPEV
For the molecule B13, the enrichment score in the assay with SHP2 C-SH2 domain E139D is inactive: 0.873; in assay [1], inactive: 1.01; in the assay with SHP2 N-SH2 domain L43F, inactive: 1.04; with SHP2 N-SH2 domain T42A, inactive: 0.727; in the assay with SHP2 N-SH2 domain T52S, inactive: 1.03; in assay [2], inactive: 1.08.

B14: CHST6_Y168_R166P (peptide)
chain: EACPSYSHVVL
As for B14, the enrichment score in the assay with SHP2 C-SH2 domain E139D was inactive: 0.654; in assay [1] it was inactive: 0.901; with SHP2 N-SH2 domain L43F, inactive: 0.693; in the assay with SHP2 N-SH2 domain T42A, inactive: 1.17; in the assay with SHP2 N-SH2 domain T52S, inactive: 0.724; in assay [2], inactive: 0.843.

B15: CHAC2_Y78_R82G (peptide)
chain: EEVKAYLDFGE
Consider B15, for which the enrichment score with SHP2 C-SH2 domain E139D was inactive: 1.19; in assay [1], inactive: 1.35; with SHP2 N-SH2 domain L43F it was inactive: 0.861; with SHP2 N-SH2 domain T42A, inactive: 1.19; in the assay with SHP2 N-SH2 domain T52S it was inactive: 0.911; in assay [2], inactive: 1.11.

B16: CFTR_Y517 (peptide)
chain: YDEYRYRSVIK
For B16, the enrichment score with SHP2 C-SH2 domain E139D was inactive: 0.717; in assay [1], inactive: 0.787; in the assay with SHP2 N-SH2 domain L43F, inactive: 0.765; with SHP2 N-SH2 domain T42A it was inactive: 0.792; in the assay with SHP2 N-SH2 domain T52S, inactive: 0.593; in assay [2], inactive: 0.792.

B17: CHGA_Y381_G382S (peptide)
chain: FRARAYSFRGP
In the case of B17, the enrichment score was inactive: 0.214 in the assay with SHP2 C-SH2 domain E139D; inactive: 0.19 in assay [1]; inactive: 0.247 with SHP2 N-SH2 domain L43F; inactive: 0.243 with SHP2 N-SH2 domain T42A; inactive: 0.213 with SHP2 N-SH2 domain T52S; inactive: 0.272 in assay [2].

B18: CHD7_Y75 (peptide)
chain: DHYNQYEQQKM
For B18, the enrichment score was inactive: 0.506 with SHP2 C-SH2 domain E139D; inactive: 0.461 in assay [1]; inactive: 0.601 with SHP2 N-SH2 domain L43F; inactive: 0.385 with SHP2 N-SH2 domain T42A; inactive: 0.446 with SHP2 N-SH2 domain T52S; inactive: 0.387 in assay [2].

B19: CHST6_Y362 (peptide)
chain: GYRPVYSEDEQ
B19: the enrichment score is inactive: 0.788 with SHP2 C-SH2 domain E139D; inactive: 0.595 in assay [1]; inactive: 0.832 in the assay with SHP2 N-SH2 domain L43F; inactive: 0.422 in the assay with SHP2 N-SH2 domain T42A; inactive: 0.587 with SHP2 N-SH2 domain T52S; inactive: 0.674 in assay [2].
